This note sets out measurements from the supplement of paper PMC2702839.

Where a name gives a salt, the structure may show the parent alone. Some of the results follow.

This assay concerns Schistosoma mansoni schistosomula. Briefly: phenotypic hit in primary schistosomula screen (any phenotype vs DMSO control) (binary (1 = hit, 0 = no phenotype)); higher = active (phenotype induced). Conditions: 1 µM; time (d): 7.
As to `C[C@@H]1C[C@H]2[C@@H]3CCC4=CC(=O)C=C[C@]4(C)[C@@]3(F)[C@@H](O)C[C@]2(C)[C@@]1(O)C(=O)COP(=O)(O)O` [dexamethasone sodium phosphate], the phenotypic hit was inactive: 0.
With `C[C@]12CC[C@@H]3c4ccc(OC(=O)c5ccccc5)cc4CC[C@H]3[C@@H]1CC[C@@H]2O` [estradiol benzoate] the figure was inactive: 0; with `CN1CCN(C(c2ccccc2)c2ccccc2)CC1` [cyclizine], inactive: 0.
`OCCN(CCO)c1nc(N2CCCCC2)c2nc(N(CCO)CCO)nc(N3CCCCC3)c2n1` [Dipyridamole]: the phenotypic hit was inactive: 0.
As to `C[N+](C)(C)CC(=O)O` [betaine hydrochloride], the phenotypic hit is inactive: 0.
In the case of `Cc1c(C(=O)O)c(O)cc2c1C(=O)c1c(O)c([C@@H]3O[C@H](CO)[C@@H](O)[C@H](O)[C@H]3O)c(O)c(O)c1C2=O` [carminic acid], the phenotypic hit was inactive: 0.
Under `COc1c(-c2ccccc2)oc2c(ccc3occc32)c1=O` [karanjin] stands inactive: 0; under `CC(C)=CCC/C(C)=C/CC/C(C)=C/CO` [farnesol], inactive: 0; under `O=C1CN(/N=C/c2ccc([N+](=O)[O-])o2)C(=O)N1` [nitrofurantoin], inactive: 0.
With `Cc1ccccc1OCC(O)CO` (stereo not given) [mephenesin] the figure was inactive: 0; with `C[C@H](N)[C@H](O)c1cccc(O)c1` [metaraminol bitartrate], inactive: 0; with `CC1(C)S[C@@H]2[C@H](NC(=O)C(C(=O)O)c3ccccc3)C(=O)N2[C@H]1C(=O)O` (stereo not given in full) [carbenicillin disodium], inactive: 0.
Consider `CCN(CC)CCOC(=O)C(Cc1cccc2ccccc12)CC1CCCO1` (stereo not given) [nafronyl oxalate], for which the phenotypic hit is inactive: 0.
Under `O=C1CN(/N=C/c2ccc(-c3ccc([N+](=O)[O-])cc3)o2)C(=O)N1` [dantrolene sodium] stands inactive: 0.
Take `C=C[C@@H](C1=CC(=O)C(OC)=C(OC)C1=O)c1ccccc1` [3,4-dimethoxydalbergione]: the phenotypic hit is inactive: 0.
In the case of `COc1cc(O)c2c(c1)C(=O)c1cc(C)cc(O)c1C2=O` [physcion], the phenotypic hit is inactive: 0.
With `Cc1cc(NS(=O)(=O)c2ccc(N)cc2)no1` [sulfamethoxazole] the figure was inactive: 0; with `CN[C@@H]1[C@@H](O)[C@@H](O[C@@H]2[C@@H](O)[C@H](O[C@H]3OC(CN)=CC[C@H]3N)[C@@H](N)C[C@H]2N)OC[C@]1(C)O` [sisomicin sulfate], active: 1.
Under `C=C[C@](C)(O)CCC=C(C)C` [linalool (+)] stands inactive: 0.
As for `NC[C@H]1O[C@H](O[C@H]2[C@H](O)[C@@H](O[C@H]3O[C@H](CO)[C@@H](O)[C@H](N)[C@H]3O)[C@H](N)C[C@@H]2N)[C@H](O)[C@@H](O)[C@@H]1O` [kanamycin sulfate], the phenotypic hit is inactive: 0.
